Results reported in PubChem BioAssay AID743279 (National Center for Advancing Translational Sciences (NCATS), 2014).
Among all 360,000 compounds or so, about 17,000 (4.7%) were called active. This list was built around the results that the source calls inconclusive (neither active nor inactive); the mix of calls is not that of the screen. No stated cut-off is given here; in the data, active means activity change below about -50%; inconclusive means mostly about -30% to -49%; inactive means weaker than that.

Test: qHTS for Inhibitors of Inflammasome Signaling: IL-1-beta AlphaLISA Primary Screen
Conditions: THP-1 LPS/ATP IL-1B secretion, 16 h; at 57.5 µM, active compounds read low
Method in brief: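 THP-1 cells pretreated 1 hr with compounds (up to 57.5 uM final), then stimulated with LPS (250 ng/mL final) plus ATP (1.25 mM final); secreted IL-1B measured by AlphaLISA after 16 hr, decreased signal indicating inhibition.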
On the % scale 0 is the no-effect control and ±100 the full control effect.

Question: With `CCOC(=O)N1CCN(c2c(NC3CCN(Cc4ccccc4)CC3)c(=O)c2=O)CC1` as the molecule, how does the activity change read?
Answer: The activity change was inactive: -12.2%.

Question: With `Cc1cccc(Cn2ccc(N)n2)c1` as the molecule, how does the activity change read?
Answer: The activity change was inconclusive: -38.6%.

Question: For `O=C(OCC(=O)N1N=C(c2ccc(Cl)cc2)CC1c1ccco1)c1cncc(Br)c1` (stereo not given), which activity change is on record?
Answer: Its activity change is inconclusive: -38.1%.

Question: With `CC(=O)N(C)c1ccc(NC(=S)NC(=O)/C=C/c2ccco2)cc1` as the molecule, how does the activity change read?
Answer: Its activity change is inconclusive: -41.8%.

Question: With `O=c1c2c3nc4ccccc4nc3n(/N=C/c3ccccn3)c2ncn1-c1ccccc1` as the molecule, how does the activity change read?
Answer: Its activity change is inconclusive: -38.1%.

Question: For `C#CCOCCOCCOCCNc1nc(N2CCN(C(=O)CCCCCCCCCCNC(=O)Cn3cc(CCCCCN)nn3)CC2)nc(N2CCN(C(=O)CCCCCCCCCCNC(=O)[C@H](CO)n3cc(CCCSC)nn3)CC2)n1`, which activity change is on record?
Answer: Its activity change is active: -72.1%.

Question: With `COC(=O)c1cc(C(=O)CC(C)C)c[nH]1` as the molecule, how does the activity change read?
Answer: The activity change was inconclusive: -34.1%.

Question: Which activity change does the source give for `CN(C(=O)c1cccc(NC(=O)Cc2ccc(NC(=O)C3CCN(C(=O)C4CCC4)CC3)cc2)c1)C1CC1` here?
Answer: Its activity change is inactive: 12.3%.

Question: With `O=C(OCC(=O)N1CCCc2ccccc21)c1cnc(Cl)c(Cl)c1` as the molecule, how does the activity change read?
Answer: The activity change was active: -84.8%.

Question: Which activity change does the source give for `COc1ccccc1NC(=O)CCC(=O)c1ccc(-c2ccccc2)cc1` here?
Answer: Its activity change is inactive: 60.8%.

Question: With `NS(=O)(=O)c1cccc(NC(=O)COC(=O)C2(c3cccc(F)c3)CCCC2)c1` as the molecule, how does the activity change read?
Answer: The activity change was active: -53.1%.

Question: Which activity change does the source give for `COCCN1CCC(CNCc2cn[nH]c2-c2ccc(C)c(C)c2)C1` (stereo not given) here?
Answer: The activity change was inconclusive: -45.3%.

Question: With `Cc1ccc(N2C(=O)CCC2=O)c(C)c1` as the molecule, how does the activity change read?
Answer: The activity change was inactive: -5.93%.

Question: For `CN(C)CCOC(=O)C12CC3(C)CC(C)(CC(C)(C3)C1)C2`, which activity change is on record?
Answer: The activity change was inconclusive: -38.6%.

Question: Which activity change does the source give for `CCOc1ncccc1C(=O)Nc1ccc(S(=O)(=O)NC2=NCCCCC2)cc1` here?
Answer: The activity change was inconclusive: -37.4%.

Question: For `O=C1c2ccccc2C(Nc2ccc(S(=O)(=O)N3CCCCC3)cc2)N1c1ccccn1` (stereo not given), which activity change is on record?
Answer: Its activity change is inconclusive: -31.9%.

Question: Which activity change does the source give for `Cc1ccc(C)c(NC(=O)COC(=O)c2cc(=O)c3ccccc3o2)c1` here?
Answer: The activity change was inconclusive: -46.2%.

Question: For `Cc1cc(Cl)ccc1OC(C)C(=O)Nc1cccc(S(=O)(=O)N2CCOCC2)c1` (stereo not given), which activity change is on record?
Answer: Its activity change is inconclusive: -32%.

Question: Which activity change does the source give for `Cn1nc(C(=O)NC2CCCCC2)c2c1-c1ccccc1S(=O)(=O)C2` here?
Answer: Its activity change is inconclusive: -38.5%.

Question: For `CCOP(=O)(C1=C(O)C(=O)C(C(C)(C)C)=CC1=O)c1ccccc1` (stereo not given), which activity change is on record?
Answer: Its activity change is inactive: 35.2%.

Question: With `Cc1ccccc1-c1cc2nc(Oc3ccc4c(c3)OCO4)n(C)c(=O)c2s1` as the molecule, how does the activity change read?
Answer: Its activity change is inconclusive: -42.5%.

Question: Which activity change does the source give for `Cc1cccc2sc(NC(=O)CCNS(=O)(=O)c3cccs3)nc12` here?
Answer: The activity change was inconclusive: -47.6%.

Question: With `CCN(CC)CCN(Cc1cc2cccc(C)c2[nH]c1=O)C(=S)Nc1ccccc1` as the molecule, how does the activity change read?
Answer: The activity change was active: -80.1%.

Question: Which activity change does the source give for `CSc1snc(SCC(N)=O)c1C#N` here?
Answer: Its activity change is inactive: -6.54%.

Question: With `CO/N=C(\c1nonc1N)N1CCN(c2ccc(Cl)cc2[N+](=O)[O-])CC1` as the molecule, how does the activity change read?
Answer: Its activity change is inconclusive: -44.2%.

Question: With `COc1cccc(C2=NN(C(=O)c3ccco3)C(O)(C(F)(F)F)C2)c1` (stereo not given) as the molecule, how does the activity change read?
Answer: Its activity change is inactive: 0%.

Question: For `O=C(CN1C(=O)S/C(=C\C=C\c2ccccc2)C1=O)NC1CCS(=O)(=O)C1` (stereo not given), which activity change is on record?
Answer: The activity change was inconclusive: -37.5%.

Question: Which activity change does the source give for `COc1ccc(CCNC(=S)Nc2cccc(C)c2)cc1` here?
Answer: The activity change was inactive: 1.46%.

Question: Which activity change does the source give for `CSc1ccccc1NC(=O)Nc1ccc(F)c(Cl)c1` here?
Answer: Its activity change is inconclusive: -34.2%.

Question: With `Cc1ccc(Nc2nc(N)nc(COC(=O)C3=COCCO3)n2)cc1` as the molecule, how does the activity change read?
Answer: The activity change was inconclusive: -42.1%.

Question: With `COC(=O)c1c(NC(=O)CS(=O)(=O)c2ccccc2)sc(C)c1C` as the molecule, how does the activity change read?
Answer: Its activity change is inactive: -6.68%.

Question: For `COc1ccc(C=C2CS(=O)(=O)CC(=Cc3ccc(OC)cc3)C2=O)cc1`, which activity change is on record?
Answer: The activity change was active: -107%.

Question: Which activity change does the source give for `O=c1[nH][nH]c(=O)c2c(NS(=O)(=O)c3ccccc3)cccc12` here?
Answer: Its activity change is inconclusive: -49.8%.

Question: Which activity change does the source give for `Cc1cccc(-c2nc(CSCC(=O)N3CCN(c4ccccn4)CC3)c(C)o2)c1` here?
Answer: Its activity change is active: -59.4%.

Question: With `O=C(Nc1cccc(-c2cccc(Cl)c2)c1)C1CCN(Cc2ccon2)CC1` as the molecule, how does the activity change read?
Answer: Its activity change is active: -61.1%.

Question: For `CC(C)CCNc1nc(N)c([N+](=O)[O-])c(N2CCCCCC2)n1`, which activity change is on record?
Answer: Its activity change is inactive: -6.29%.

Question: Which activity change does the source give for `CN(C)c1ncnc2c1ncn2[C@H]1CN(Cc2cccs2)C[C@@H](CO)O1` here?
Answer: The activity change was inactive: 21%.

Question: Which activity change does the source give for `CCN(CC)c1ccc(/C=C(\C#N)C(=O)c2ccc(Br)cc2)cc1` here?
Answer: The activity change was inconclusive: -43.9%.

Question: Which activity change does the source give for `CN(C)S(=O)(=O)c1ccc(C(=O)Nc2ccc(Cl)cc2)cc1` here?
Answer: The activity change was inconclusive: -49%.

Question: With `Cc1onc(-c2ccccc2Cl)c1C(=O)NCc1ccco1` as the molecule, how does the activity change read?
Answer: Its activity change is active: -77.1%.

Question: For `CCOC(=O)c1c(NC(=O)CSc2n[nH]c(N)n2)sc(CC)c1C`, which activity change is on record?
Answer: The activity change was active: -92.2%.

Question: Which activity change does the source give for `COc1ccccc1NS(=O)(=O)c1cc(C(=O)NC2CC(C)(C)NC(C)(C)C2)ccc1Cl` here?
Answer: The activity change was inconclusive: -37.6%.

Question: Which activity change does the source give for `Cc1ccc(-c2nc(N3CCN(C)CC3)c3ccccc3n2)cc1` here?
Answer: The activity change was inconclusive: -45.2%.

Question: With `O=S(=O)(NC1c2cccc3cccc(c23)C1N1CCNCC1)c1ccc(Cl)cc1` (stereo not given) as the molecule, how does the activity change read?
Answer: Its activity change is active: -60.4%.

Question: Which activity change does the source give for `CC(C)N(C(=O)c1nn(C)c2c1CSc1ccccc1-2)C1CCCCC1` here?
Answer: Its activity change is inactive: -17.6%.

Question: For `OC(CNCCc1ccc(C(F)(F)F)cc1)COc1cccc2ccccc12` (stereo not given), which activity change is on record?
Answer: The activity change was active: -62.6%.

Question: Which activity change does the source give for `COC(=O)[C@@]12CCCCN1[C@H](c1ccc(-c3cccc(Cl)c3)cc1)[C@@H]1C(=O)N(C)C(=O)[C@@H]12` here?
Answer: The activity change was inconclusive: -44.1%.

Question: Which activity change does the source give for `COc1ccc(N2Cc3ccccc3C2=NC(=O)c2ccc(C)cc2)cc1OC` here?
Answer: Its activity change is inconclusive: -33.2%.

Question: Which activity change does the source give for `COc1ccc2cc3cc(C(=O)NCCCN4CCC(C)CC4)oc3nc2c1` here?
Answer: Its activity change is active: -83.1%.

Question: With `Cc1nn(-c2ccccc2)c(/N=C/c2ccccc2O)c1-c1ccccc1` as the molecule, how does the activity change read?
Answer: The activity change was inactive: -10.4%.

Question: With `CCOc1ccc(Nc2cc(=O)oc3ccccc23)cc1` as the molecule, how does the activity change read?
Answer: Its activity change is inactive: -24.1%.

Question: Which activity change does the source give for `CC(C)(C)NC(=O)CN1C(=O)NC(c2ccccc2)(c2ccccc2)C1=O` here?
Answer: The activity change was inactive: 1.6%.

Question: Which activity change does the source give for `COc1ccc(NC(=O)C2Cc3c(-c4ccncc4)ccnc3O2)cc1OC` (stereo not given) here?
Answer: Its activity change is inactive: 0%.

Question: Which activity change does the source give for `Cc1ccc(-c2csc3ncn(CC(=O)O)c(=O)c23)cc1C` here?
Answer: The activity change was inactive: 32%.

Question: With `FC(F)c1nnc2ccc(Cl)nn12` as the molecule, how does the activity change read?
Answer: Its activity change is inconclusive: -44.1%.
